# Laboratory results: the supplement of paper PMC11417369
# ± gives the standard deviation of the averaged measurements. Some of the results follow.
# Tested on: PfAP2-LT AP2 domain (GST-tagged)
# Assay: gcPBM binding intensity (ln(normalized median fluorescence intensity)); higher = stronger DNA binding
# Procedure, shortened: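 An Agilent 4 × 180k array of primer-extended double-stranded 36-bp intergenic genomic probes, with negative controls, was incubated for 1 h with GST-tagged P. falciparum DNA-binding domains expressed in E. coli. Alexa488 anti-GST antibody detected bound protein, scanned at 488 nm. Binding intensity is the highest Masliner-normalised natural-log median intensity across replicate spots of either probe orientation.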
row,Sequence,gcPBM binding intensity (ln)
1,ATATATATATATCACCGTACTTATATAATAACATGA [XGTACX_site4398],9.11 ± 0.13
2,TAATTATTCTATTAAGTGCATATATTTTTAAAAAGA,8.21 ± 0.45
3,TTTTTTTTTTATTTTTGTACATATATTTCAGTATTA [XGTACX_site8396],8.75 ± 0.52
4,ACAGATATATTTATTTGTACATATCACCAAAATGGA [XGTACX_site5644],8.55 ± 0.4
5,ATAATATTCGAGTGTGCACACAAACATACATATATA [CACACA_site3396],9.68 ± 0.44
6,ATACAGAAAAAAAACACACACACATAATATACATAC [CACACA_site1933],9.84 ± 0.16
7,ATTTTTATTAAAATATGTACGTATTTTACTCATACA [XGTACX_site5330],8.86 ± 0.43
8,TACAGATATTATTGCACACATATAAAATACCCCCAA [CACACA_site6014],9.43 ± 0.4
9,TTACGTTATATACATACACACCCACGCACAAAAAAA [CACACA_site6537],9.29 ± 0.11
10,ATTAAATACTTCGATTGTACAATTTTTTTTTTTTTT [XGTACX_site832],8.59 ± 0.58
11,TAAGAATAATGACATAGTACAATTTAATAGATCTAA [XGTACX_site3670],8.66 ± 0.49
12,TTTTCAAAATAATATTATATCAAATGCTAAAAAGAA [TGCATGCA_negctrl_site588],8.4 ± 0.35
13,AAGTTTATTTGTTGCACACATATAAGTAGAGAAAAT [CACACA_site3027],8.94 ± 0.42
14,GTATGTATATATGTATGTACTTATGTATCATTATTA [XGTACX_site2438],8.95 ± 0.39
15,TAATATTTATGTTAATGTACAAAAAAACAAAACAAA [XGTACX_site301],8.59 ± 0.48
16,ATAATATATATTAAACGTACATAAAATAATTATGGA [XGTACX_site1670],8.82 ± 0.4
17,TTTGTATAATACATGTGTACGTATTTTTATATAAAT [XGTACX_site8656],8.77 ± 0.36
18,TTATCATTATATAGTTGTACATATTTATTTATAAAA [XGTACX_site2310],8.45 ± 0.44
19,AGAACTAAAAGAACATGTACATAAATTCTAAATAAT [XGTACX_site4084],8.84 ± 0.49
20,ATGATACTAAAAAATTGTACATATAACAAAAGGTAT [XGTACX_site2527],8.93 ± 0.39
21,CATATATTTTGAAACACACACATATATAATATACAT [CACACA_site1158],9.24 ± 0.3
22,ATAACAAAATGAAGAGTGCATTACCAAGTGGGTAAA [GTGCAC_site9450],8.96 ± 0.52
23,ATATTTAAGGCGTGTATGCACACGACTATTCCGTAT [CACACA_site1080],9.15 ± 0.28

row,Sequence,gcPBM binding intensity (ln)
1,TTAATTTGTTCTTACACACACATATAAATATATTTA [CACACA_site6676],9.03 ± 0.32
2,TATTTTGTTTTAAAAGTACACACTTTTAATTAGATT [CACACA_site1180],8.63 ± 0.51
3,AAAAAAAAAAGAAACACACACATATATATATAGAAT [CACACA_site1777],9.44 ± 0.39
4,CATACCTTTTAATGTACACACATTTCTTTTTTGTTA [CACACA_site892],9.1 ± 0.42
5,TTATATGGATATACAGTGCATATATACATATAAGTG,8.86 ± 0.47
6,AATATATATACTATAACACACATACACCCAAAAAAA [CACACA_site4453],9.43 ± 0.19
7,TATATGTATTTGTATACACACAAATGTATATATTTA [CACACA_site1265],8.84 ± 0.41
8,ATGTATTAAAATTTATGTACTTATATATAAATATAT [XGTACX_site1025],8.6 ± 0.49
9,TATAAACATAATATTTAACACACATGAAGATGTATA [CACACA_site8252],8.74 ± 0.4
10,TATATATTGTTATATACACACATGTATTTAAAAAAT [CACACA_site5737],8.72 ± 0.34
11,ATTATTATATATGTATGTACTTATATAATATATATA [XGTACX_site5198],8.66 ± 0.42
12,TCTGTTAAACAAAAAAGTACTAAAATAATGTAAAAT [XGTACX_site6826],8.71 ± 0.47
13,TTAACAAAACATAAGGTGCTTAAAATTTTATATCAC [GTGCAC_site9839],8.6 ± 0.39
14,TACCTATATAGACACACACACATATATTTATTTATA [CACACA_site6728],9.52 ± 0.33
15,ATATGTACAAGTGTTTATGCTGAACGGAAATCCTGT [CACACA_negctrl_site1372],8.92 ± 0.4
16,TTTTTTTTTATATAAAAAAAAATTTTTATTATTTTA [GTGCAC_negctrl_site347],8.04 ± 0.49
17,TTCTCCTAATAGTTAGTGCACTACATAACTAAGAAA,8.46 ± 0.38
18,ATAATTGTCCATTTTTTCTTTTTTTTTTTCTTTTTA [CACACA_negctrl_site928],8.66 ± 0.54
19,AAAAAAAAAAAAAAAACACACATTTAGCAATCTACA [CACACA_site3706],8.82 ± 0.4
20,ATATGATCATACTGTGCATGTTAATGCAAATTTTAT [TGCATGCA_site984],9.07 ± 0.51
21,TACATATATTATACATGTACACATTTATACATATCG [XGTACX_site2866],9.04 ± 0.34
22,AATACAATTTATAACACACACACAAGAATACCTATA [CACACA_site6705],9.73 ± 0.26
23,TTTGTATCTATATATTGTACGAATTACTTTCATTTA [XGTACX_site4785],8.85 ± 0.47

row,Sequence,gcPBM binding intensity (ln)
1,TCTTTTTAAGGGATTTTTTTTTTTTTTTTAAAAAGA [CACACA_negctrl_site1274],7.88 ± 0.45
2,TATACATACATTAGACGTACACATTTTACCTACACC [XGTACX_site3586],9.09 ± 0.34
3,TATTATGTATGTATATGTACGTATCTTATTTTATTT [XGTACX_site5008],9.06 ± 0.61
4,TTTTTTGTATTTTTCACACACACATAAGTAAACAAT [CACACA_site1900],9.28 ± 0.46
5,AAATATAGAATACATGTGCACATAATATATATATAT,9.26 ± 0.26
6,AAATTATTATATATATGTACGTATAATGTATTTTGT [XGTACX_site2903],8.95 ± 0.38
7,AAATGTAAATTTATCCGTACATATATATATTTATAT [XGTACX_site7024],8.72 ± 0.47
8,AAAAAAAAAAAAATATATATATATATATATATATAT [GTGCAC_negctrl_site212],9.7 ± 0.13
9,AAAAAAAAAAATTAAAGTACAAAAATATTAAAAATA [XGTACX_site6517],8.46 ± 0.61
10,TGCATTTATATCTTCACACATATATATATATATATA [CACACA_site4516],9.515 ± 0.05
11,ATGTAATAAAATAATTGTACAATGTAACTAATTTTT [XGTACX_site2871],8.93 ± 0.45
12,ATTAAAAATTCAATTGCACACGCACATATTTTAATA [CACACA_site8618],9.03 ± 0.4
13,ATATGTATATATACATGTACATATTTTTCCTTTCTT [XGTACX_site149],8.78 ± 0.47
14,ATAAACATGGAAATGTATTAAAAGCAAGTATATAAA [XGTACX_negctrl_site516],8.85 ± 0.57
15,TAAATTATAACGTGCACACATATTTAAAATGAAATG [CACACA_site2820],9.05 ± 0.38
16,TTGGGTGCATATATTTGTACACATTATTTCTATTTT [XGTACX_site3688],8.74 ± 0.5
17,TGTTGTTACAGATATACACACATATATATATTATAT [CACACA_site5342],9.09 ± 0.38
18,AAAAAAAATTTCTTCACACATAAATAAATAAATAAA [CACACA_site4841],8.3 ± 0.47
19,TTTTTTTTTTTTTCAAGTACATATATATATATATAA [XGTACX_site2098],8.38 ± 0.25
20,TTTTTATATGTTAAGTGTACGTTTACATTTTATACT [XGTACX_site3485],8.87 ± 0.45
21,ACATAAATAAATTAATGTACATATATATTTGTATAT [XGTACX_site3160],8.77 ± 0.47
22,TATATATATATATATACACACACACCCATATATATA [CACACA_site8812],9.85 ± 0.18
23,TTTCTTAAAATATAAAGTACTAAAATGAAAATATAT [XGTACX_site2173],8.4 ± 0.41

row,Sequence,gcPBM binding intensity (ln)
1,AAATAAAGAAATATATGTACATATATATATATATAT [XGTACX_site5131],9.64 ± 0.25
2,TTTATTCTCCACACCCGTACACATTTTTTTTGCATA [XGTACX_site5615],9.04 ± 0.52
3,AAAAAAAAAAAAAACACACACACACGCAGATATATA [CACACA_site6672],9.96 ± 0.27
4,CATAATATTTGTGAAAGTACTTATTTTACAATAGGG [XGTACX_site5004],8.59 ± 0.38
5,ATTATAGACAACTCTTTTTCTAAACTATTTTATTTT [CACACA_negctrl_site1754],8.89 ± 0.61
6,CTTCTTTTGTGATAAAGTACAAATATTTTGAAATAT [XGTACX_site1156],8.29 ± 0.4
7,ATAAATAAATAAATAAATATATATATGAAATAATGT [TGCATGCA_negctrl_site12],8.86 ± 0.35
8,TTTTCTATAAGATTTGCACACAACTTATTCTATTAA [CACACA_site3752],9.2 ± 0.37
9,AAAAAATATAAAACGAGTACATATATAATAAGCAAA [XGTACX_site1360],9.03 ± 0.47
10,ATTTCTTTTACATTTACATGCAATGCTCTATAGATA [TGCATGCA_site62],8.98 ± 0.45
11,AAAGAATTTGCATATACACACAAAAAAATAAATACA [CACACA_site4373],9.12 ± 0.47
12,ATTTTTTTTATGTATTATGCTTTTATATCCTTCATA [CACACA_negctrl_site1244],8.93 ± 0.49
13,AATATAATATAATGCACACATAAAAAAAAAAAAATC [CACACA_site1303],9.21 ± 0.41
14,AATGCACTATTTAAAAGTACACATAAGAAAAGCATA [XGTACX_site1739],8.88 ± 0.43
15,GCTAAACAATAGTTTGCACACAATTTAAATATATAT [CACACA_site193],9.04 ± 0.35
16,AGTATAAATATATTATGTACATATATATTATACTTA [XGTACX_site2623],8.65 ± 0.35
17,TTATATACATTAAATGAACACACATAAATAAATTAC [CACACA_site8927],8.88 ± 0.38
18,ATATATATATACATATGTACATATATATTTATACAT [XGTACX_site2463],9.1 ± 0.3
19,TACACAGACGGACACACACACACACTAGAAAAAAAA [CACACA_site4435],10.1 ± 0.59
20,TTGTTAATAAAAATATTGGAAAGTTTATAAAATTTT [CACACA_negctrl_site1487],8.13 ± 0.44
